Experimental findings from publication PMC5629025 (2017) are described below.

Amino acid sequences for entries named in this document (tags omitted).
UniProt P10275: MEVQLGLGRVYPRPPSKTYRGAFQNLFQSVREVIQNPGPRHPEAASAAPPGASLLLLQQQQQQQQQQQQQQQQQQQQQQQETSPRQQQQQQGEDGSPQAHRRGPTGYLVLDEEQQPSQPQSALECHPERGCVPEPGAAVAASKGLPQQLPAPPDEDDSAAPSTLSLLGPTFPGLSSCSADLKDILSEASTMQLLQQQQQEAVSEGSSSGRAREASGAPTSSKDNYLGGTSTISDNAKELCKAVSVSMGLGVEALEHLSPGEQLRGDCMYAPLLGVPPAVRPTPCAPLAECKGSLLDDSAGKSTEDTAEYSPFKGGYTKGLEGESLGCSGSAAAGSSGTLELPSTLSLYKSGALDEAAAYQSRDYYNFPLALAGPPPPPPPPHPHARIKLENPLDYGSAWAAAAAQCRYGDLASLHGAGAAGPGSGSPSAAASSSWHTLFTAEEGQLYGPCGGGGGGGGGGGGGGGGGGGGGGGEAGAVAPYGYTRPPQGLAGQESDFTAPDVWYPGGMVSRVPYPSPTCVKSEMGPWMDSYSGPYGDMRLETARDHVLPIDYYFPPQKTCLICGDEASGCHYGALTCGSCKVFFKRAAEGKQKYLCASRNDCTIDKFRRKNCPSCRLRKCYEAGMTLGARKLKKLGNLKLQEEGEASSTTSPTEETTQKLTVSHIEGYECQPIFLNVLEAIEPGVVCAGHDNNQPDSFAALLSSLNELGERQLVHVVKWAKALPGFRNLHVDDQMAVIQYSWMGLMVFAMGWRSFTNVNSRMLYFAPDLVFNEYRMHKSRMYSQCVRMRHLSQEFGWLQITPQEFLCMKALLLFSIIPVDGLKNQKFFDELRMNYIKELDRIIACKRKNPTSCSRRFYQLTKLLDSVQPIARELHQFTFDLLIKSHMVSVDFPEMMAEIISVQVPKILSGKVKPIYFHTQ
UniProt P0DMV8: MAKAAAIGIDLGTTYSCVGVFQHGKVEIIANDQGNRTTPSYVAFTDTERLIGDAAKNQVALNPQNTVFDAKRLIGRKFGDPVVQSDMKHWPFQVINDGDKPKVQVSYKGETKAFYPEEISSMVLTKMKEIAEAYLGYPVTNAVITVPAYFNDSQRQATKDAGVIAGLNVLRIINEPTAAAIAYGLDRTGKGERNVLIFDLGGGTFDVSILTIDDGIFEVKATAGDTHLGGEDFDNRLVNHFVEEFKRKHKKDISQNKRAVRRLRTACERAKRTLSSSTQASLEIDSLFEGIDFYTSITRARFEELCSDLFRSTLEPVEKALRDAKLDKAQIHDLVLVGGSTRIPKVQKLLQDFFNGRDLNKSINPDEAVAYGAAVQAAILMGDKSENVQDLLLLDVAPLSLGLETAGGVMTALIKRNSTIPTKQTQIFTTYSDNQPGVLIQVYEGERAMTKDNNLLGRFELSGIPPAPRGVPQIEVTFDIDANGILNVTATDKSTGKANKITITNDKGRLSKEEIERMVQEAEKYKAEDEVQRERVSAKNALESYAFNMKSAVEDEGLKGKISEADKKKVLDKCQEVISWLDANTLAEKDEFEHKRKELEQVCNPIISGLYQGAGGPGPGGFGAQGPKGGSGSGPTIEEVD

Test [1] concerns the target T1, Bag-1L, endogenous in LNCaP cells (human (endogenous in LNCaP)) (UniProt Q99933).
T1 sequence: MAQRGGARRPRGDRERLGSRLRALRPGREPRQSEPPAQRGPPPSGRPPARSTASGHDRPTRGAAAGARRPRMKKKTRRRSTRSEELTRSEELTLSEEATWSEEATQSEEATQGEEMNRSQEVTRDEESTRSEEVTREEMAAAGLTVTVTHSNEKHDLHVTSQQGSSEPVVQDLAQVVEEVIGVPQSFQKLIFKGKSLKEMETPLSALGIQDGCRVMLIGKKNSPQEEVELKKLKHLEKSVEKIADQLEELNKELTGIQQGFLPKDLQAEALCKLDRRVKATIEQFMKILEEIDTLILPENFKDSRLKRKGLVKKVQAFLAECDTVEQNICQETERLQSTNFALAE
Nature of the test: co-IP; endogenous proteins in LNCaP cells, without Thio-2; IP with a Bag-1L-specific antibody, blot for AR; IgG IP as negative control.

The target in test [2] is T1, Bag-1L, endogenous in LNCaP cells (human (endogenous in LNCaP)). The experiment in a line: condition: only cells treated with 5 μM Thio-2 for 16 hr; co-IP; endogenous proteins in LNCaP cells treated with 5 μM Thio-2 for 16 hr; IP with a Bag-1L-specific antibody, blot for AR.
For test [3], the target named is T2, FLAG-, HA-tagged wild-type Bag-1L (human) (UniProt Q99933).
T2 sequence: T1 sequence
Nature of the test: co-IP; LNCaP cells stably overexpressing FLAG-, HA-tagged Bag-1L WT or CMut; IP with anti-HA-tag antibody, blots for AR and Hsp70.

Test [4] has as its target T3, GST-Bag-1L fusion protein, wild type (human) (UniProt Q99933).
T3 sequence: T1 sequence
Nature of the test: pull-down; GST-Bag-1L fusion proteins (wild type and BAG domain point mutants) with lysates from LNCaP cells; only the target purified.

Test [5] addresses T4, FLAG-, HA-tagged BAG domain mutant Bag-1L (K231/232/279A) (human) (UniProt Q99933).
T4 sequence: T1 sequence with K231A, K232A, K279A
The experiment in a line: co-IP; LNCaP cells stably overexpressing FLAG-, HA-tagged Bag-1L WT or CMut; IP with anti-HA-tag antibody, blots for AR and Hsp70.

Test [6] has as its target T5, GST-Bag-1L fusion protein, K231/232/279A triple mutant (human) (UniProt Q99933).
T5 sequence: T1 sequence with K231A, K232A, K279A
Nature of the test: pull-down; GST-Bag-1L fusion proteins (wild type and BAG domain point mutants) with lysates from LNCaP cells; only the target purified.

Residue numbers refer to the chain shown, from its start. These are yes or no findings as the source states them, for the method shown. Binding seen in cells or lysates may run through a third protein. Some binding calls cover weakened binding; strength is not graded here. For some assays here: Where a sequence is shown, tags or fusion partners need not be part of it.

With “androgen receptor, endogenous in LNCaP cells (from UniProt P10275 1-920)”, the binding result in test [1] is “binds”; in test [2], “no binding”; in test [3], “binds”; in test [4], “binds”.

For the substance “Hsp70 (HSPA1), endogenous in LNCaP cells (from UniProt P0DMV8 1-641)”, the binding entry in test [3], in test [5], in test [6] and in test [4] was “binds” throughout.
